The supplement of paper PMC11741623
The other results are listed elsewhere or left out. Interaction screen of human proteins with wild-type SARS-CoV-2 proteins by split-DHFR complementation in yeast, 1 µg/mL methotrexate. Value = fitness of the pair (three or more lineages) minus that of the viral protein without a human partner, on a scale set by negative (0) and fused positive (1) controls, mean of up to three cultures; higher = more likely to interact. Active = false discovery rate below 0.05 (one-sided t-test) in at least one culture. Nearly all pairs are not hits, and differences among them are mostly noise (correlation between cultures about 0.3); most hits were seen in one culture only. Human sequences are the Swiss-Prot entries looked up by gene name; the clone may be another isoform. NSP2 values were corrected by the authors for a growth advantage. Listed are human proteins with a hit and a random twelfth of the others.

Tests used:
Assay in all cases: yeast fitness gain over the viral ORF with no human partner (scaled fitness); higher = more likely to interact
SARS-CoV-2 E = biological target: SARS-CoV-2 E
Procedure: (§1)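 Split mouse DHFR complementation in pooled diploid yeast: human ORFeome clones carry one fragment and viral ORFs the other; barcoded lineages compete in 1 µg/mL methotrexate and fitness is read by barcode sequencing in up to three cultures.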

SARS-CoV-2 M = biological target: SARS-CoV-2 M
Procedure: as §1

SARS-CoV-2 N = biological target: SARS-CoV-2 N
Procedure: as §1

SARS-CoV-2 NSP1 = biological target: SARS-CoV-2 NSP1
Procedure: as §1

SARS-CoV-2 NSP10 = biological target: SARS-CoV-2 NSP10
Procedure: as §1

SARS-CoV-2 NSP12 = biological target: SARS-CoV-2 NSP12
Procedure: as §1

SARS-CoV-2 NSP13 = biological target: SARS-CoV-2 NSP13
Procedure: as §1

SARS-CoV-2 NSP15 = biological target: SARS-CoV-2 NSP15
Procedure: as §1

SARS-CoV-2 NSP16 = biological target: SARS-CoV-2 NSP16
Procedure: as §1

SARS-CoV-2 NSP2 = biological target: SARS-CoV-2 NSP2
Procedure: as §1

SARS-CoV-2 NSP5 = biological target: SARS-CoV-2 NSP5
Procedure: as §1

SARS-CoV-2 NSP6 = biological target: SARS-CoV-2 NSP6
Procedure: as §1

SARS-CoV-2 NSP7 = biological target: SARS-CoV-2 NSP7
Procedure: as §1

SARS-CoV-2 NSP8 = biological target: SARS-CoV-2 NSP8
Procedure: as §1

SARS-CoV-2 NSP9 = biological target: SARS-CoV-2 NSP9
Procedure: as §1

SARS-CoV-2 ORF10 = biological target: SARS-CoV-2 ORF10
Procedure: as §1

SARS-CoV-2 ORF3A = biological target: SARS-CoV-2 ORF3A
Procedure: as §1

SARS-CoV-2 ORF3B = biological target: SARS-CoV-2 ORF3B
Procedure: as §1

SARS-CoV-2 ORF6 = biological target: SARS-CoV-2 ORF6
Procedure: as §1

SARS-CoV-2 ORF7A = biological target: SARS-CoV-2 ORF7A
Procedure: as §1

SARS-CoV-2 ORF7B = biological target: SARS-CoV-2 ORF7B
Procedure: as §1

SARS-CoV-2 ORF8 = biological target: SARS-CoV-2 ORF8
Procedure: as §1

SARS-CoV-2 ORF9B = biological target: SARS-CoV-2 ORF9B
Procedure: as §1

[1] = biological target: SARS-CoV-2 ORF9Bwu (the 73-codon ORF)
Procedure: as §1

SARS-CoV-2 S = biological target: SARS-CoV-2 S
Procedure: as §1

SARS-CoV-2 NSP14 = biological target: SARS-CoV-2 NSP14
Procedure: as §1

SARS-CoV-2 NSP4 = biological target: SARS-CoV-2 NSP4
Procedure: as §1

B1: IRF5, Q13568 (protein)
chain: MNQSIPVAPTPPRRVRLKPWLVAQVNSCQYPGLQWVNGEKKLFCIPWRHATRHGPSQDGDNTIFKAWAKETGKYTEGVDEADPAKWKANLRCALNKSRDFRLIYDGPRDMPPQPYKIYEVCSNGPAPTDSQPPEDYSFGAGEEEEEEEELQRMLPSLSLTEDVKWPPTLQPPTLRPPTLQPPTLQPPVVLGPPAPDPSPLAPPPGNPAGFRELLSEVLEPGPLPASLPPAGEQLLPDLLISPHMLPLTDLEIKFQYRGRPPRALTISNPHGCRLFYSQLEATQEQVELFGPISLEQVRFPSPEDIPSDKQRFYTNQLLDVLDRGLILQLQGQDLYAIRLCQCKVFWSGPCASAHDSCPNPIQREVKTKLFSLEHFLNELILFQKGQTNTPPPFEIFFCFGEEWPDRKPREKKLITVQVVPVAARLLLEMFSGELSWSADSIRLQISNPDLKDRMVEQFKELHHIWQSQQRLQPVAQAPPGAGLGVGQGPWPMHPAGMQ
SARS-CoV-2 E
  yeast fitness gain: inactive: 0.0135
SARS-CoV-2 M
  yeast fitness gain: inactive: -0.0577
SARS-CoV-2 N
  yeast fitness gain: inactive: 0.129
SARS-CoV-2 NSP1
  yeast fitness gain: inactive: -0.0271
SARS-CoV-2 NSP10
  yeast fitness gain: inactive: -0.0105
SARS-CoV-2 NSP12
  yeast fitness gain: inactive: 0.111
SARS-CoV-2 NSP13
  yeast fitness gain: inactive: -0.0136
SARS-CoV-2 NSP15
  yeast fitness gain: inactive: 0.0132
SARS-CoV-2 NSP16
  yeast fitness gain: inactive: -0.0489
SARS-CoV-2 NSP2
  yeast fitness gain: inactive: -0.0786
SARS-CoV-2 NSP5
  yeast fitness gain: inactive: 0.00965
SARS-CoV-2 NSP6
  yeast fitness gain: inactive: -0.0869
SARS-CoV-2 NSP7
  yeast fitness gain: inactive: 0.0382
SARS-CoV-2 NSP8
  yeast fitness gain: inactive: 0.0803
SARS-CoV-2 NSP9
  yeast fitness gain: inactive: 0.0175
SARS-CoV-2 ORF10
  yeast fitness gain: inactive: 0.0113
SARS-CoV-2 ORF3A
  yeast fitness gain: inactive: -0.112
SARS-CoV-2 ORF3B
  yeast fitness gain: inactive: -0.0273
SARS-CoV-2 ORF6
  yeast fitness gain: inactive: -0.0649
SARS-CoV-2 ORF7A
  yeast fitness gain: inactive: -0.101
SARS-CoV-2 ORF7B
  yeast fitness gain: inactive: 0.0356
SARS-CoV-2 ORF8
  yeast fitness gain: inactive: 0.0227
SARS-CoV-2 ORF9B
  yeast fitness gain: inactive: 0.00882
[1]
  yeast fitness gain: inactive: -0.00747
SARS-CoV-2 S
  yeast fitness gain: inactive: -0.0758

B2: PTRHD1, Q6GMV3 (protein)
chain: MHRGVGPAFRVVRKMAASGAEPQVLVQYLVLRKDLSQAPFSWPAGALVAQACHAATAALHTHRDHPHTAAYLQELGRMRKVVLEAPDETTLKELAETLQQKNIDHMLWLEQPENIATCIALRPYPKEEVGQYLKKFRLFK
SARS-CoV-2 E
  yeast fitness gain: inactive: 0.0646
SARS-CoV-2 M
  yeast fitness gain: inactive: -0.0139
SARS-CoV-2 N
  yeast fitness gain: inactive: 0.094
SARS-CoV-2 NSP1
  yeast fitness gain: inactive: 0.0195
SARS-CoV-2 NSP10
  yeast fitness gain: inactive: 0.00376
SARS-CoV-2 NSP12
  yeast fitness gain: inactive: 0.0196
SARS-CoV-2 NSP13
  yeast fitness gain: inactive: 0.0591
SARS-CoV-2 NSP14
  yeast fitness gain: inactive: 0.115
SARS-CoV-2 NSP15
  yeast fitness gain: inactive: 0.0341
SARS-CoV-2 NSP16
  yeast fitness gain: inactive: 0.0365
SARS-CoV-2 NSP2
  yeast fitness gain: inactive: -0.0753
SARS-CoV-2 NSP4
  yeast fitness gain: inactive: 0.0523
SARS-CoV-2 NSP5
  yeast fitness gain: inactive: 0.0379
SARS-CoV-2 NSP6
  yeast fitness gain: inactive: -0.0101
SARS-CoV-2 NSP7
  yeast fitness gain: inactive: -0.0258
SARS-CoV-2 NSP8
  yeast fitness gain: inactive: -0.00145
SARS-CoV-2 NSP9
  yeast fitness gain: inactive: 0.0387
SARS-CoV-2 ORF10
  yeast fitness gain: inactive: 0.0688
SARS-CoV-2 ORF3A
  yeast fitness gain: inactive: -0.0841
SARS-CoV-2 ORF3B
  yeast fitness gain: inactive: 0.00585
SARS-CoV-2 ORF6
  yeast fitness gain: inactive: 0.00763
SARS-CoV-2 ORF7A
  yeast fitness gain: inactive: 0.0462
SARS-CoV-2 ORF7B
  yeast fitness gain: inactive: 0.0145
SARS-CoV-2 ORF8
  yeast fitness gain: inactive: -0.0121
SARS-CoV-2 ORF9B
  yeast fitness gain: inactive: 0.0157
[1]
  yeast fitness gain: inactive: -0.00611
SARS-CoV-2 S
  yeast fitness gain: inactive: -0.0448

B3: RDH12, Q96NR8 (protein)
chain: MLVTLGLLTSFFSFLYMVAPSIRKFFAGGVCRTNVQLPGKVVVITGANTGIGKETARELASRGARVYIACRDVLKGESAASEIRVDTKNSQVLVRKLDLSDTKSIRAFAEGFLAEEKQLHILINNAGVMMCPYSKTADGFETHLGVNHLGHFLLTYLLLERLKVSAPARVVNVSSVAHHIGKIPFHDLQSEKRYSRGFAYCHSKLANVLFTRELAKRLQGTGVTTYAVHPGVVRSELVRHSSLLCLLWRLFSPFVKTAREGAQTSLHCALAEGLEPLSGKYFSDCKRTWVSPRARNNKTAERLWNVSCELLGIRWE
SARS-CoV-2 E
  yeast fitness gain: inactive: 0.0323
SARS-CoV-2 M
  yeast fitness gain: inactive: 0.0203
SARS-CoV-2 N
  yeast fitness gain: inactive: 0.0598
SARS-CoV-2 NSP1
  yeast fitness gain: inactive: 0.0381
SARS-CoV-2 NSP10
  yeast fitness gain: inactive: 0.0379
SARS-CoV-2 NSP12
  yeast fitness gain: inactive: -0.0245
SARS-CoV-2 NSP13
  yeast fitness gain: inactive: 0.0122
SARS-CoV-2 NSP14
  yeast fitness gain: inactive: -0.3
SARS-CoV-2 NSP15
  yeast fitness gain: inactive: 0.0306
SARS-CoV-2 NSP16
  yeast fitness gain: inactive: -0.0734
SARS-CoV-2 NSP2
  yeast fitness gain: inactive: -0.124
SARS-CoV-2 NSP4
  yeast fitness gain: inactive: -0.0315
SARS-CoV-2 NSP5
  yeast fitness gain: inactive: 0.016
SARS-CoV-2 NSP6
  yeast fitness gain: inactive: 0.0377
SARS-CoV-2 NSP7
  yeast fitness gain: inactive: 0.0192
SARS-CoV-2 NSP8
  yeast fitness gain: inactive: 0.0445
SARS-CoV-2 NSP9
  yeast fitness gain: inactive: 0.076
SARS-CoV-2 ORF10
  yeast fitness gain: inactive: 0.0262
SARS-CoV-2 ORF3A
  yeast fitness gain: inactive: -0.036
SARS-CoV-2 ORF3B
  yeast fitness gain: inactive: 0.0432
SARS-CoV-2 ORF6
  yeast fitness gain: inactive: 0.0276
SARS-CoV-2 ORF7A
  yeast fitness gain: inactive: 0.0705
SARS-CoV-2 ORF7B
  yeast fitness gain: active: 0.1
SARS-CoV-2 ORF8
  yeast fitness gain: inactive: -0.0257
SARS-CoV-2 ORF9B
  yeast fitness gain: inactive: 0.00221
[1]
  yeast fitness gain: inactive: 0.0573
SARS-CoV-2 S
  yeast fitness gain: inactive: 0.00913

B4: WBSCR28, Q6UE05 (protein)
chain: MEALPPVRSSLLGILLQVTRLSVLLVQNRDHLYNFLLLKINLFNHWVSGLAQEARGSCNWQAHLPLGAAACPLGQALWAGLALIQVPVWLVLQGPRLMWAGMWGSTKGLGLALLSAWEQLGLSVAIWTDLFLSCLHGLMLVALLLVVVTWRVCQKSHCFRLGRQLSKALQVNCVVRKLLVQLRRLYWWVETMTALTSWHLAYLITWTTCLASHLLQAAFEHTTQLAEAQEVEPQEVSGSSLLPSLSASSDSESGTVLPEQETPRE
SARS-CoV-2 E
  yeast fitness gain: inactive: 0.031
SARS-CoV-2 M
  yeast fitness gain: inactive: 0.0495
SARS-CoV-2 N
  yeast fitness gain: inactive: -0.0126
SARS-CoV-2 NSP1
  yeast fitness gain: inactive: 0.0352
SARS-CoV-2 NSP10
  yeast fitness gain: inactive: 0.0264
SARS-CoV-2 NSP12
  yeast fitness gain: inactive: 0.0332
SARS-CoV-2 NSP13
  yeast fitness gain: inactive: -0.00244
SARS-CoV-2 NSP14
  yeast fitness gain: inactive: -0.000888
SARS-CoV-2 NSP15
  yeast fitness gain: inactive: 0.0133
SARS-CoV-2 NSP16
  yeast fitness gain: inactive: -0.0105
SARS-CoV-2 NSP2
  yeast fitness gain: inactive: -0.0617
SARS-CoV-2 NSP4
  yeast fitness gain: inactive: 0.0896
SARS-CoV-2 NSP5
  yeast fitness gain: inactive: 0.0105
SARS-CoV-2 NSP6
  yeast fitness gain: inactive: 0.035
SARS-CoV-2 NSP7
  yeast fitness gain: inactive: -0.0105
SARS-CoV-2 NSP8
  yeast fitness gain: inactive: 0.0292
SARS-CoV-2 NSP9
  yeast fitness gain: inactive: 0.0494
SARS-CoV-2 ORF10
  yeast fitness gain: inactive: 0.0157
SARS-CoV-2 ORF3A
  yeast fitness gain: inactive: 0.0114
SARS-CoV-2 ORF3B
  yeast fitness gain: inactive: 0.0194
SARS-CoV-2 ORF6
  yeast fitness gain: inactive: 0.0269
SARS-CoV-2 ORF7A
  yeast fitness gain: inactive: 0.0343
SARS-CoV-2 ORF7B
  yeast fitness gain: inactive: 0.0565
SARS-CoV-2 ORF8
  yeast fitness gain: inactive: 0.0271
SARS-CoV-2 ORF9B
  yeast fitness gain: inactive: -0.0455
[1]
  yeast fitness gain: inactive: 0.0185
SARS-CoV-2 S
  yeast fitness gain: inactive: 0.0338
